# Test results published in the antibiotic and cytotoxicity screens of Wong et al. (2023).
# Some of the results follow.
# What was measured:
# HSkMC = human skeletal muscle cells; assay: cytotoxicity call (relative viability < 0.9); conditions: 10 µM
# HepG2 = assay: cytotoxicity call (relative viability < 0.9); conditions: 10 µM
# S. aureus RN4220 = assay: growth inhibition call (relative growth <= 0.2); conditions: 50 µM
SMILES,cytotoxicity call (HSkMC),cytotoxicity call (HepG2),growth inhibition call (S. aureus RN4220)
O=c1nc[nH]c2ncccc12,inactive,inactive,inactive
O=c1cc(-c2ccccc2)oc2cc(O)ccc12,inactive,inactive,inactive
O=C(Cc1ccncc1)Nc1ccc2c(c1)[C@@H]1C[C@H](CC(=O)N3CCc4ccccc4C3)O[C@H](CO)[C@@H]1O2,inactive,inactive,inactive
C[C@H]1CN([C@@H](C)CO)C(=O)c2cc(-c3cncnc3)cnc2O[C@H]1CN(C)C(=O)Nc1ccc2c(c1)OCO2,inactive,inactive,inactive
C[C@@H](CCO)Nc1nc2c([nH]1)c(=O)n(C)c(=O)n2C,inactive,inactive,inactive
C[C@@H]1CN([C@@H](C)CO)C(=O)Cc2cc(NC(=O)Nc3ccc4c(c3)OCO4)ccc2O[C@@H]1CN(C)Cc1ccc(C(=O)Nc2ccccc2N)cc1,inactive,active,inactive
CCNC(=O)[C@H]1N[C@H]2c3ccc(-c4cccc(C(=O)N(C)C)c4)c(=O)n3C[C@H]2[C@@H]1CO,inactive,inactive,inactive
CO[C@@H]1CN(C)C(=O)c2cc(NS(C)(=O)=O)ccc2OC[C@H](C)N(S(C)(=O)=O)C[C@H]1C,inactive,inactive,inactive
C[C@H](CO)N1C[C@H](C)[C@@H](CN(C)Cc2cccc(F)c2)Oc2cc(C#CC3CC3)ccc2S1(=O)=O,inactive,inactive,inactive
O=C(c1ccccc1F)N1CCNCC1,inactive,inactive,inactive
C[C@@H]1CCCCO[C@H](CN(C)C(=O)c2ccncc2)[C@H](C)CN([C@@H](C)CO)C(=O)c2cc(NS(=O)(=O)c3cn(C)cn3)ccc2O1,inactive,inactive,inactive
C[C@H]1CN([C@@H](C)CO)C(=O)c2cccc(NC(=O)Nc3cccc4ccccc34)c2O[C@H]1CN(C)S(=O)(=O)c1ccc(F)cc1,inactive,inactive,inactive
C=CCCCCCCCCC(=O)O,inactive,inactive,inactive
CN(C)C(=O)C[C@H]1C=C[C@@H](NC(=O)C2CCOCC2)[C@@H](CO)O1,inactive,inactive,inactive
C[C@@H]1CN([C@H](C)CO)C(=O)c2cc(NC(=O)C3CCCCC3)ccc2O[C@@H](C)CCCCO[C@H]1CN(C)C(=O)NC1CCCCC1,inactive,inactive,inactive
C[C@@H]1CN([C@@H](C)CO)C(=O)c2cc(NC(=O)Nc3ccc(F)cc3)ccc2O[C@@H](C)CCCCO[C@@H]1CN(C)Cc1ccncc1,inactive,inactive,inactive
COc1cccc(C#Cc2ccc3c(c2)O[C@@H](CN(C)C(=O)c2ccccn2)[C@H](C)CN([C@@H](C)CO)S3(=O)=O)c1,inactive,inactive,inactive
C=CCC[C@@H](Cc1ccc(F)cc1)C(=O)OC[C@@H]1CCCN1C(=O)[C@H](CC=C)CC(=O)N(CCO)Cc1ccccc1,inactive,inactive,inactive
C[C@@H]1CCCCO[C@H](CN(C)S(=O)(=O)c2ccc(Cl)cc2)[C@H](C)CN([C@@H](C)CO)C(=O)c2cc(NC(=O)c3ccncc3)ccc2O1,inactive,inactive,inactive

SMILES,cytotoxicity call (HSkMC),cytotoxicity call (HepG2),growth inhibition call (S. aureus RN4220)
C[C@@H]1CCCCO[C@@H](CN(C)C(=O)NC2CCCCC2)[C@H](C)CN([C@@H](C)CO)C(=O)c2cc(NC(=O)NC3CCCCC3)ccc2O1,inactive,inactive,inactive
C[C@H]1CN([C@@H](C)CO)C(=O)c2cc(C3=CCCC3)cnc2O[C@@H]1CN(C)S(=O)(=O)c1cn(C)cn1,inactive,inactive,inactive
C[C@H]1CN([C@@H](C)CO)C(=O)c2cccc(NC(=O)Nc3ccc(C(F)(F)F)cc3)c2O[C@H]1CN(C)Cc1ccc(Oc2ccccc2)cc1,active,inactive,inactive
CC1=C(C(=O)O)N2C(=O)[C@H](NC(=O)[C@@H](N)c3ccccc3)[C@H]2SC1,inactive,inactive,inactive
CCO[C@H]1OC(C(=O)N2CCN(C)CC2)=C[C@@H](c2ccc3c(c2)OCO3)[C@@H]1CCCOC(=O)NCCCCCC(=O)NO,inactive,inactive,inactive
COc1ccc(S(=O)(=O)N(C)C[C@H]2Oc3ccc(NS(=O)(=O)c4ccc(C)cc4)cc3CC(=O)N([C@H](C)CO)C[C@@H]2C)cc1,inactive,inactive,inactive
c1ccc(Oc2nnc(-c3ccccc3)c3ccccc23)cc1,inactive,inactive,inactive
C[C@@H]1CN([C@@H](C)CO)C(=O)c2cc(C#CCN(C)C)cnc2O[C@@H]1CN(C)C(=O)c1cnccn1,inactive,inactive,inactive
C[C@@H]1CN([C@@H](C)CO)C(=O)c2cc(NC(=O)CCCCCC(=O)Nc3ccccc3N)ccc2O[C@@H]1CN(C)Cc1ccc(-c2ccccc2)cc1,inactive,active,inactive
C[C@H](CO)N1C[C@H](C)[C@@H](CN(C)C(=O)Nc2ccccc2)Oc2cc(C#C[C@@H](C)O)ccc2S1(=O)=O,inactive,inactive,inactive
CN1CCN(C(=O)C[C@H]2CC[C@@H](NC(=O)Cc3ccccn3)[C@H](CO)O2)CC1,inactive,inactive,inactive
C[C@@H]1CN([C@@H](C)CO)S(=O)(=O)c2ccc(C3=CCCC3)cc2O[C@H]1CN(C)C(=O)Cc1ccncc1,inactive,inactive,inactive
Cn1cnc(S(=O)(=O)N[C@@H]2C=C[C@H](CC(=O)NCC3CC3)O[C@H]2CO)c1,inactive,inactive,inactive
COC(=O)C[C@H]1NCCNC1=O,inactive,inactive,inactive
Oc1cc(O)c2cc(O)c(-c3ccc(O)c(O)c3)[o+]c2c1.[Cl-],inactive,inactive,inactive
C[C@@H]1CN([C@H](C)CO)C(=O)c2cc(C#CC3(O)CCCC3)cnc2O[C@@H]1CN(C)C(=O)Nc1ccc2c(c1)OCO2,inactive,inactive,inactive
CNC[C@@H]1OCCCC[C@H](C)Oc2ccc(NC(=O)Nc3cccc4ccccc34)cc2C(=O)N([C@@H](C)CO)C[C@H]1C,inactive,inactive,inactive
CC(C)NC(=O)N(C)C[C@@H]1Oc2ccc(NS(=O)(=O)c3ccc(F)cc3)cc2C(=O)N([C@H](C)CO)C[C@H]1C,inactive,inactive,inactive
C[C@H]1CN([C@@H](C)CO)C(=O)c2cc(NS(=O)(=O)c3cn(C)cn3)ccc2O[C@H]1CN(C)S(C)(=O)=O,inactive,inactive,inactive

SMILES,cytotoxicity call (HSkMC),cytotoxicity call (HepG2),growth inhibition call (S. aureus RN4220)
C[C@@H]1CN([C@H](C)CO)C(=O)Cc2cc(NS(C)(=O)=O)ccc2O[C@H]1CN(C)C(=O)Nc1ccc2c(c1)OCO2,inactive,inactive,inactive
COc1ccccc1C#Cc1cnc2c(c1)C(=O)N([C@H](C)CO)C[C@H](C)[C@H](CN(C)S(=O)(=O)c1cn(C)cn1)O2,inactive,inactive,inactive
C[C@H]1CCCCO[C@H](CN(C)C(=O)CCCN(C)C)[C@@H](C)CN([C@@H](C)CO)C(=O)c2cc(NC(=O)Nc3ccc(F)cc3)ccc2O1,inactive,inactive,inactive
C[C@H](CO)N1C[C@H](C)[C@@H](CN(C)S(=O)(=O)c2ccc(F)cc2)Oc2ccc(NC(=O)C3CC3)cc2CC1=O,inactive,inactive,inactive
CNCCCN1c2ccccc2CCc2ccccc21.Cl,inactive,active,inactive
C[C@@H]1CN([C@H](C)CO)C(=O)c2cc(NC(=O)Cn3cnnn3)ccc2O[C@H]1CN(C)C(=O)Nc1ccc(F)cc1,inactive,inactive,inactive
C[C@@H]1CCCCO[C@@H](CN(C)Cc2ccncc2)[C@@H](C)CN([C@H](C)CO)C(=O)c2cc(NC(=O)NC3CCCCC3)ccc2O1,inactive,inactive,inactive
COc1ccc2c(c1)c(-c1ccccc1)nn2-c1ccc(C)cc1,inactive,inactive,inactive
C[C@H](NC(=O)N(C)C[C@H]1OCc2ccccc2-c2ccccc2C(=O)N([C@@H](C)CO)C[C@H]1C)c1ccccc1,inactive,inactive,inactive
C[C@H]1CCCCO[C@@H](CN(C)C(=O)Nc2ccccc2)[C@@H](C)CN([C@@H](C)CO)C(=O)c2cc(NC(=O)Nc3ccc(C(F)(F)F)cc3)ccc2O1,inactive,inactive,inactive
C[C@H](CO)N1C[C@H](C)[C@@H](CN(C)C(=O)Nc2ccc(C(F)(F)F)cc2)Oc2c(NC(=O)Nc3ccc4c(c3)OCO4)cccc2C1=O,inactive,inactive,inactive
C[C@@H]1CN([C@H](C)CO)C(=O)c2cc(NS(=O)(=O)c3ccc(Cl)cc3)ccc2O[C@@H](C)CCCCO[C@H]1CN(C)Cc1ccccc1,inactive,inactive,inactive
Cc1cn([C@H]2O[C@@H](CO)[C@H](O)[C@H]2F)c(=O)[nH]c1=O,inactive,inactive,inactive
O=C(C[C@@H]1CC[C@@H]2[C@H](COC[C@H](O)CN2S(=O)(=O)c2ccc(Cl)cc2)O1)N[C@@H]1CCN(Cc2ccccc2)C1,inactive,active,inactive
C[C@@H]1CN([C@@H](C)CO)C(=O)CCCn2nncc2CO[C@@H]1CN(C)C(=O)Nc1cccc(Oc2ccccn2)c1,inactive,inactive,inactive
C[C@@H]1CN([C@@H](C)CO)C(=O)Cc2cc(NS(=O)(=O)c3cccs3)ccc2O[C@H]1CN(C)S(C)(=O)=O,inactive,inactive,inactive
CN1CCN(C(=O)C[C@H]2CC[C@H]3[C@@H](COc4ccc(NC(=O)c5cscn5)cc4C(=O)N3C)O2)CC1,inactive,inactive,inactive
C[C@H](CO)N1C[C@H](C)[C@H](CN(C)C(=O)Nc2ccccc2)OCCCC[C@H](C)Oc2ccc(NS(=O)(=O)c3ccc(F)cc3)cc2C1=O,inactive,inactive,inactive
C[C@H]1CCCCO[C@@H](CN(C)Cc2ccccc2)[C@@H](C)CN([C@@H](C)CO)C(=O)c2cc(NC(=O)Nc3ccc4c(c3)OCO4)ccc2O1,inactive,inactive,inactive
